According to patent US4459296A, “Piperazines and homopiperazines, N-substituted by an aromatic heterocyclic group, and their use in therapeutics” (Delalande S.A., priority 1982, dated 1984):
At least one read-out could not be matched to a standard name with certainty.

Tested on: S.H.R. rats (genetically hypertensive)
Assay: Antihypertensive activity by oral administration to S.H.R. rats (genetically hypertensive)
Assay type: in vivo
Description: The arterial blood pressure was recorded on an APELAB-BP recorder 8002-and an electromechanical counter provided a direct reading of the heartbeat rate. The measurements were taken at 0 hour, 2 hours, 4 hours, 6 hours and 24 hours after administration of the compounds tested.
To illustrate the invention, the results obtained with some of the compounds of the invention are shown in Table II below in which the symbols AHY, ΔPA and ΔFC have the following meanings:
AHY=% of rats whose arterial blood pressure drops by a value greater than or equal to 20% of the initial value or is brought down to a value less than 150 mmHg,
ΔPA=% variation of the arterial blood pressure in all the animals tested with respect to the initial blood pressure,
ΔFC=% variation of the heart-beat rate of all the animals tested with respect to the initial rate.

[1] = dose 50, 2 hours after administration
[2] = dose 50, 4 hours after administration
[3] = dose 50, 6 hours after administration
[4] = dose 50, 24 hours after administration

SMILES | AHY (% of rats whose arterial blood pressure drops by ≥20% of initial value or to <150 mmHg) [1] | ΔFC (% variation of the heart-beat rate vs initial) [1] | ΔPA (% variation of the arterial blood pressure vs initial) [1] | AHY (% of rats whose arterial blood pressure drops by ≥20% of initial value or to <150 mmHg) [2] | ΔFC (% variation of the heart-beat rate vs initial) [2] | ΔPA (% variation of the arterial blood pressure vs initial) [2] | AHY (% of rats whose arterial blood pressure drops by ≥20% of initial value or to <150 mmHg) [3] | ΔFC (% variation of the heart-beat rate vs initial) [3] | ΔPA (% variation of the arterial blood pressure vs initial) [3] | AHY (% of rats whose arterial blood pressure drops by ≥20% of initial value or to <150 mmHg) [4] | ΔFC (% variation of the heart-beat rate vs initial) [4] | ΔPA (% variation of the arterial blood pressure vs initial) [4]
CCOC(=O)N1CCN(c2cccc3[nH]c(C)nc23)CC1 [compound 26] | 100% | -9% | -30% | 100% | -5% | -26% | 86% | -2% | -22% | 14% | +2% | -8%
CCOC(=O)N1CCN(c2cccc3[nH]cnc23)CC1 [compound 13] | 100% | +2% |  | 100% | 0% | -35% | 86% | 0% | -34% | 28% | -5% | -14%
c1ccc(SN2CCN(c3cccc4[nH]cnc34)CC2)cc1 [compound 24] | 71% | +2% | -21% | 100% | 0% | -23% | 57% | 0% | -19% | 14% | -3% | 0%
O=C(c1cccs1)N1CCN(c2cccc3[nH]cnc23)CC1 [Code No. 7] | 100% | -5% | -31% |  |  |  |  |  |  |  |  | 
CC(C)COC(=O)N1CCN(c2cccc3[nH]cnc23)CC1 [compound 21] | 86% | -7% | -27% | 71% | +3% | -23% | 100% | +1% | -25% | 14% | -6% | -6%
CC(C)C(=O)N1CCN(c2cccc3[nH]cnc23)CC1 [Code No. 3] | 28% | -5% | -15% |  |  |  |  |  |  |  |  | 
CSc1nnc(C(=O)N2CCN(c3cccc4[nH]cnc34)CC2)o1 [compound 12] | 100% | -12% | -43% | 100% | -13% | -38% | 86% | -6% | -30% | 43% | -13% | -18%
CCOC(=O)C1CCN(c2cccc3[nH]cnc23)CC1 [compound 30] | 42% | -2% | -15% | 28% | -3% | -18% | 70% | -2% | -23% | 56% | -4% | -21%
CCOC(=O)N1CCN(c2ncnc3[nH]cnc23)CC1 [compound 25] | 57% | +2% | -21% | 42% | +7% | -22% | 71% | +2% | -20% | 0% | +15% | -3%
C=C(C)COC(=O)N1CCN(c2cccc3[nH]cnc23)CC1 [Code No. 17] | 100% | +8% | -26% |  |  |  |  |  |  |  |  | 
